Experimental data published in PubChem BioAssay AID1345083 (National Center for Advancing Translational Sciences (NCATS), 2018).
About 6,200 (6.6%) of roughly 94,000 compounds were called active. Inconclusive results, whose numbers are uncertain, are shown with a selection of clear calls. Calls come from the whole dose curve; as a rule, active = well fitted inhibition curve with a large enough effect; inconclusive = small, poorly fitted or top-dose-only effect; inactive = flat fitted curve, though single readings scatter. Potencies beside an inconclusive call are fits to weak or partial responses and may not hold up.

Assay: Cytotoxic Profiling in HEK 293 Cell Line of Diverse Libraries Using Quantitative High-Throughput Screening; note: nearly all actives have a fitted effect of over 60% in size
Details: HEK 293 viability, ATP luminescence (CellTiter-Glo), 48-72 h; series mostly up to 115 µM
Procedure, shortened: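 Cytotoxicity was scored by loss of ATP-coupled luminescence (CellTiter-Glo) in HEK 293 cells. Compound treatment ran 48 or 72 hr at 37 degree Celsius, 5% CO2, 95% humidity.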
Potency is the fitted concentration of half-maximal effect; tags give direction and shape of the fitted curve.

SMILES	Potency
COc1cccc(NC(=O)[C@@H]2OCC(=O)N(C3CC3)[C@H]2c2ccccc2)c1	inactive
O=C(NCCc1ccccc1)c1ccc2nc(-c3ccccn3)oc2c1	active: 89.1 µM
O=C(c1ccccc1)N1CCC2(C1)C(=NC1CCCCC1)NC(=O)N2c1cccnc1 (configuration not stated)	inactive
CCOCCn1cc(C2CCN(S(=O)(=O)c3cccc(Cl)c3C)CC2)c2ccccc21	inconclusive: 44.7 µM [inhibitor, partial curve, poor fit]
CNC(=O)c1cc(C2CC2)nc2c1c(C1CCN(C(=O)c3ccccn3)CC1)nn2C	inactive
CCOC(=O)[C@@H]1CN(C(=O)c2ccc(C)cc2)[C@H]2c3cccc(F)c3O[C@@H]12	inconclusive: 50.1 µM [inhibitor, partial curve, poor fit]
COc1ccc(OC)c(NC(=O)CC2CCCCN(Cc3ccccc3)C2=O)c1 (configuration not stated)	inconclusive: 89.1 µM [inhibitor, single point]
Cc1ccc(Nc2ccnc(N3CCC(C(=O)N(C)C)CC3)n2)cc1	inconclusive: 50.1 µM [inhibitor, partial curve, poor fit]
Cc1ncc2c(c1CNC(=O)c1ccccc1OC(F)F)CCNC2	inactive
CC1(Cc2ccc3c(c2)OCO3)CCCN(C(=O)c2cncc(Cl)c2)C1 (configuration not stated)	active: 31.6 µM
CCCN(CC1CCOC1)C(=O)Nc1cccc(C(F)(F)F)c1 (configuration not stated)	inconclusive: 89.1 µM [inhibitor, single point]
O=C(Nc1ccc(Cl)cc1F)N1CCc2nc3cc[nH]n3c(=O)c2C1	inactive
O=C(COc1ccc2nncn2n1)N1CCOCC(O)(CN2CCCC2)C1 (configuration not stated)	inactive
Cc1ccc(C(=O)N2CCC3(CC2)CC(Cc2ccccc2)CCO3)s1 (configuration not stated)	inconclusive: 39.8 µM [inhibitor, partial curve, poor fit]
CCOc1ccccc1NC(=O)N1CCC(N2C(=O)C(OC)C23CCOCC3)CC1 (configuration not stated)	inactive
CCOc1ccc(NC(=O)c2cc3n(n2)CC(c2ccc(Cl)cc2)OC3)cc1 (configuration not stated)	inconclusive: 22.4 µM [inhibitor, full curve]
O=C(c1cc(F)cc(Cl)c1)N1CCc2nc(-c3cccc(F)c3)[nH]c2C1	inconclusive: 50.1 µM [inhibitor, partial curve, poor fit]
CC(C)Oc1cccc(-c2n[nH]c3c2CC(=O)N(Cc2ccccn2)C3)c1	inconclusive: 100 µM [inhibitor, partial curve, poor fit]
COc1ccc(-c2ccc3ncc(Nc4ccccc4OC)n3n2)cn1	inconclusive: 50.1 µM [inhibitor, partial curve, poor fit]
CNC(=O)Nc1ccc(C2(C(=O)N3CCN(c4ccccc4Cl)CC3)CCC2)cc1	inconclusive: 89.1 µM [inhibitor, single point]
c1cncc(C2=NOC3(CCCN(Cc4cccc5ccccc45)C3)C2)c1 (configuration not stated)	inconclusive: 89.1 µM [inhibitor, single point]
CN1C(=O)CC[C@]2(C(=O)NCc3ccccc3Cl)CCCC[C@@H]12	inactive
Cc1n[nH]c(C)c1C(N)C(=O)NCc1scnc1-c1ccccc1 (configuration not stated)	inactive

SMILES	Potency
COc1ncccc1-c1nccn2c(C3CN(Cc4c[nH]c5ccccc45)C3)ncc12	inconclusive: 100 µM [inhibitor, partial curve, poor fit]
CCOc1ccc2c(n1)CCN(C(=O)Nc1cc(C)ccc1C)C2	inconclusive: 56.2 µM [inhibitor, partial curve, poor fit]
O=C(COc1ccc(-c2nnc3n2CCCC3)cc1)Nc1ccc(F)cc1	inactive
O=[S+]1([O-])NC2(CCCN(Cc3c(F)cccc3F)C2)COc2ccccc21 (configuration not stated)	inconclusive: 89.1 µM [inhibitor, single point]
COc1ccc(-c2nc3cc(C)ccc3cc2CN2CCCC(C#N)C2)cc1OC (configuration not stated)	inconclusive: 50.1 µM [inhibitor, partial curve, poor fit]
O=C(NC1CCCN(c2cc(-c3ccc(F)cc3)[nH]n2)C1)c1ccc2cc[nH]c2c1 (configuration not stated)	active: 35.5 µM
CC(C)NS(=O)(=O)c1cc(C(=O)O)cc(-n2cccn2)c1	inactive
O=C1CC(c2ccccc2)N(C(=O)C2CC2)CCCN(C(=O)NCCc2ccccc2)CCN1 (configuration not stated)	inactive
CS(=O)(=O)N1CCC2(CC1)CC(=O)N(CCCc1ccccc1)C2	inactive
CSCCNC(=O)C1CCCN1c1nccc(Nc2ccccc2F)n1 (configuration not stated)	inconclusive: 50.1 µM [inhibitor, partial curve, poor fit]
COc1ccc(NC(=O)CCC2CCN(S(=O)(=O)c3ccccc3F)CC2)c(OC)c1	inconclusive: 89.1 µM [inhibitor, single point]
Cc1n[nH]c(C)c1CN1CCC2(CC1)CN(Cc1ccccc1)CC2CO (configuration not stated)	inconclusive: 89.1 µM [inhibitor, single point]
Cc1ccc(CNC(=O)c2ccc(-c3ccc(N4CCSCC4)nc3)cc2)o1	inconclusive: 44.7 µM [inhibitor, partial curve, poor fit]
CC(=O)NC1CCN(Cc2cn(-c3ccccc3F)nc2-c2cc(C)sc2C)C1 (configuration not stated)	inconclusive: 56.2 µM [inhibitor, partial curve, poor fit]
O=C(NC[C@H]1O[C@@H](CO)[C@@H](O)[C@H]1N1CCN(c2cccc(C(F)(F)F)c2)CC1)c1ccccc1	inconclusive: 89.1 µM [inhibitor, single point]
c1ccc(-c2cc3c(cn2)CN(Cc2ccc4[nH]ccc4c2)CCN3)cc1	active: 50.1 µM
O=C(Nc1cccc2ccccc12)O[C@@H]1CO[C@H]2[C@@H]1OC[C@@H]2Nc1nccc(-c2cccc(F)c2)n1	active: 39.8 µM
Cc1noc(C)c1CC(=O)N1CCCC2(C1)Nc1cccnc1NC2=NCc1ccccc1 (configuration not stated)	inactive
CCO[C@H]1C[C@@H](O)C12CCN(C(=O)c1cc(C(F)(F)F)[nH]n1)CC2	inactive
CCOC(=O)C1CCN(C(=O)c2cc(-c3cc(Cl)cc(Cl)c3)c3nncn3n2)CC1	inactive
CCn1cc(-c2ccc(Cl)cc2)cc1C(=O)NCC1CCCO1 (configuration not stated)	inconclusive: 44.7 µM [inhibitor, partial curve, poor fit]
COC(=O)N1CCCN(c2nccc(Nc3ccc(C)cc3)n2)C1	active: 50.1 µM
COC1C(=O)N(c2cccc(F)c2)C12CCN(Cc1ccc(F)cc1F)CC2 (configuration not stated)	inconclusive: 7.94 µM [inhibitor, full curve, poor fit]

SMILES	Potency
CCc1noc(-c2nc(-c3ccc(OC)cc3OC)no2)n1	inactive
Cc1nn2c(c1-c1ccccc1Oc1ccccc1)N(C(=O)c1ccnn1C)CCC2	inconclusive: 112 µM [inhibitor, single point]
COC[C@H]1NC(=O)CC[C@H]1C(=O)Nc1cccc(OC)c1	inactive
O=C(NCc1ccccn1)c1ccc2nnc(-c3ccc(OC(F)(F)F)cc3)n2c1	inactive
C[C@H](C(=O)NCCN1CCOCC1)C1CC[C@@]2(C)Cc3sc(CSc4ccccc4)nc3[C@@H](C)[C@@H]2[C@H]1O (some centres not stated)	active: 39.8 µM
Cc1ccc(C(=O)N2CCCC3(C2)NC(=O)N(Cc2ccc(Cl)cc2)C3=O)cc1F (configuration not stated)	inconclusive: 100 µM [inhibitor, single point]
O=c1ccc(CN2CCN(c3ccccc3F)CC2)cn1CC1CC1	inconclusive: 22.4 µM [inhibitor, full curve, poor fit]
CCOc1ccc(CC(=O)N2CCC(n3cc(-c4nc(-c5ccccc5)no4)nn3)C2)cc1 (configuration not stated)	inconclusive: 50.1 µM [inhibitor, partial curve, poor fit]
O=C(NCc1nnc2ccc(-c3ccc(Cl)cc3)nn12)c1cccc(Cl)c1	inconclusive: 100 µM [inhibitor, single point]
O=C(Cn1cccc1-c1nc(-c2ccccc2)no1)Nc1ccc(F)c(F)c1	inactive
O=C(NCc1cccc(Cl)c1)c1ccc2nnc(-c3ccc(OC(F)(F)F)cc3)n2c1	inconclusive: 79.4 µM [inhibitor, partial curve]
CC(C)C[C@@H]1N[C@H](C(=O)O)Cc2cn(CC3CCC3)c3cccc1c23	active: 70.8 µM
O=C1Nc2ccccc2CC12CCN2[S+](=O)([O-])c1ccccc1 (configuration not stated)	inactive
CC(=O)NCC1(COc2cccnc2)C[C@@H](O)[C@@H](O)C1 (some centres not stated)	inactive
COCCN1C(=O)c2ccccc2C(C(=O)NCc2ccc(Cl)cc2)C12CCCCC2 (configuration not stated)	inconclusive: 44.7 µM [inhibitor, partial curve]
Cc1cccc(C(=O)N2CCC3(CC2)CC(c2ccccc2)CN(C)C3)n1 (configuration not stated)	inconclusive: 79.4 µM [inhibitor, partial curve, poor fit]
CCCS(=O)(=O)N1CCC(c2nc(CCOc3ccc(F)cc3)no2)C1 (configuration not stated)	inconclusive: 89.1 µM [inhibitor, single point]
CC1=C[C@@H](CN2CCN(c3ncccn3)CC2)[C@H](C(C)C)C[C@H]1Cc1nnc(-c2ccc(N(C)C)cc2)o1	active: 28.2 µM
COc1ccccc1C(=O)NC1CCN(Cc2ccc(-c3ccccc3OC)cc2)C1 (configuration not stated)	inconclusive: 50.1 µM [inhibitor, partial curve, poor fit]
Cc1cnc(C2CC2)n1C1CCN(S(=O)(=O)c2ccc3c(c2)OCCO3)CC1	inconclusive: 35.5 µM [inhibitor, partial curve, poor fit]
Cn1nc(-c2ccncc2)cc1NC(=O)c1ccccc1F	inconclusive: 63.1 µM [inhibitor, partial curve, poor fit]
